Laboratory results as given in PubChem BioAssay AID686971 (National Center for Advancing Translational Sciences (NCATS), 2013).
Hit rate of the full screen: of about 360,000 compounds, about 7,500 (2.1%) were called active. This list was built around the results that the source calls inconclusive (neither active nor inactive); the mix of calls is not that of the screen. The call rests on the fitted dose curve; in most records, active means well fitted cell-killing curve with a large enough effect; inconclusive means small, poorly fitted or top-dose-only effect, or effect the other way, or another doubt; inactive means no such curve, though single readings can be large or run the other way. Potencies of inconclusive entries are left out as doubtful fits.

assay: qHTS for induction of synthetic lethality in tumor cells producing 2HG: qHTS for the HT-1080-IDH1KD cell line; conditions: HT-1080 IDH1 knockdown viability, ATP luminescence, 48 h; activity, negative = toxicity: at 46.1 µM (top of the series) unless noted;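 on activity, negative = toxicity: 0% = DMSO wells and -100% = cell-free medium wells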
In short: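 IDH1KD HT-1080 cells, 750/well, RPMI + 5% FBS; compound pinned after 2 h settling; 48 h, 37 °C; CellTiter-Glo luminescence; % activity normalised to DMSO and no-cell wells; curves fitted, classed by r2 and efficacy.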
Potency means the concentration at half of the fitted maximal effect; tags describe the fitted curve by direction and shape.

Compound | Potency | activity, negative = toxicity
C[C@H]1CN=C(N(C)C)N1CCC1CCCCC1 | inactive | –
O=C(CCS(=O)(=O)c1ccccc1)N(CCCN1CCOCC1)c1nc2ccccc2s1 | inconclusive [cytotoxic, single point] | –
CC(=O)N1CCC(C(=O)OCc2ccc(Cl)cc2)(c2ccccc2)CC1 | inconclusive [cytotoxic, partial curve, poor fit] | –
Cc1c(C(=O)NC2CCN(Cc3ccccc3)C2)oc2c(Cl)cccc12 (centres undefined) | inconclusive [cytotoxic, partial curve, poor fit] | –
Fc1cccc(CSc2ccc(-c3ccc4c(c3)OCO4)nn2)c1 | inconclusive [cytotoxic, single point] | –
Cc1ccccc1-c1cc2nc(NCCc3ccncc3)n(C)c(=O)c2s1 | inconclusive [cytotoxic, single point] | –
COC(=O)c1ccc(NC(=O)CSc2nc3ccccc3c(=O)[nH]2)cc1 | inconclusive [cytotoxic, single point] | –
CCN1CCN(c2cc(N3CCN(C(=O)c4ccco4)CC3)c3c4c(onc24)-c2ccccc2C3=O)CC1 | inconclusive [cytotoxic, single point] | –
O=S(=O)(O)c1cc(O)c(N=Nc2ccc(O)cc2O)c2ccccc12 | inconclusive [cytotoxic, single point] | –
O=C(NN=C1c2ccccc2-c2ccccc21)c1ccccn1 | inconclusive [cytotoxic, single point] | –
COc1ccc2cc(S(=O)(=O)NCc3cccnc3)ccc2c1 | inconclusive [cytotoxic, single point] | –
O=c1cc(C(Cl)(Cl)Cl)oc2c1ccc1ccccc12 | active: 11.6 µM | –
CCOC(=O)N1CCN(C(=O)C[C@@H]2C[C@@]3(C(=O)OC)CC(C)(C)CC=C3N(Cc3cccc4ccccc34)C2=O)CC1 | inconclusive [cytotoxic, single point] | –
Cc1ccc(-c2csc(NC(=O)C[n+]3cc(-c4ccccc4)n4c3CCC4)n2)cc1 | inconclusive [cytotoxic, single point] | –
CCCCOc1ccc(C(=O)NCCN2CCC(n3c(=O)[nH]c4ccccc43)CC2)cc1 | active: 16.4 µM | –
CCn1cc(CN2CCCC(C(=O)c3ccc(-c4ccccc4)cc3)C2)cn1 (centres undefined) | active: 23.1 µM | –
Cc1ccc(OCC(=O)Nc2ccc3c(c2)OCCO3)cc1C | inactive | –
COCCN1C[C@@H](CO)O[C@@H](n2cnc3c(N(C)C(C)C)ncnc32)C1 | inconclusive [rising, single point] | –
Cc1ccc(NC(=O)CN(C)C(=O)c2cccnc2Nc2cccc(C(F)(F)F)c2)cc1 | inconclusive [cytotoxic, single point] | –
O=c1cc(CSc2nnc(-c3ccco3)o2)c2ccccc2[nH]1 | – | inconclusive: 1.82%
Cc1ccc(-c2noc(CSc3nnc(Cc4ccccc4)n3-c3ccc(Cl)cc3)n2)cc1 | inconclusive [cytotoxic, single point] | –
COCOc1cccc(CN2CCC2(C)C(=O)NCCNC(C)=O)c1 (centres undefined) | inconclusive [rising, single point] | –
CN1CCN(C(=O)/C=C/c2ccc(Cl)cc2)CC1 | – | inconclusive: 31.2%

Compound | Potency | activity, negative = toxicity
O=c1c2c([N+](=O)[O-])cc([N+](=O)[O-])cc2sn1Cc1ccccc1 | inconclusive [cytotoxic, single point] | –
O=C(CO/N=C/c1ccc(OC(F)F)cc1)NC1CCCCC1 | inactive | –
Cc1ccc(S(=O)(=O)N2CCCC(c3nc4c(nnn4Cc4ccc5c(c4)OCCO5)c(=O)[nH]3)C2)cc1 (centres undefined) | inactive | –
COC(=O)Cc1c(C)[nH]n(-c2cc(Cl)cc(Cl)c2)c1=O | inconclusive [cytotoxic, single point] | –
COc1cc(/C=C/c2nc3ccccc3c(=O)[nH]2)cc(OC)c1OC | inconclusive [cytotoxic, full curve] | –
COc1ccc(CCC(=O)Nc2ccccc2C(F)(F)F)cc1 | inactive | –
COc1cc2c(cc1OC)CN(CC(=O)Nc1ccc(F)cc1)C(C(=O)O)C2 (centres undefined) | inactive | –
O=C(CNC(=O)c1cccs1)N/N=C/c1ccc(O)cc1O | inconclusive [cytotoxic, partial curve] | –
N#CC1=C(N)Oc2ccc3ccc(O)cc3c2C1c1ccsc1 (centres undefined) | inconclusive [cytotoxic, partial curve] | –
CCOC(=O)[C@]12CCCC=C1N(Cc1ccccc1)C(=O)[C@H](CC(=O)N1CCC(c3ccccc3)CC1)C2 | inactive | –
CCOCCC(=O)Nc1ccc2c(c1)c(=O)n(C)n2CC=C(C)C | inconclusive [cytotoxic, full curve] | –
COc1ccc(N(CC(O)CN2C(=O)NC(C)(C)C2=O)S(=O)(=O)c2ccccc2)cc1 (centres undefined) | inactive | –
CCCCn1c(N)c(N(CCOC)C(=O)Cn2c(=O)oc3ccccc32)c(=O)[nH]c1=O | inactive | –
CC(=O)Nc1nc(C)c(-c2csc(Nc3ccccn3)n2)s1 | inconclusive [cytotoxic, full curve] | –
C[C@H](CO)N1C[C@H](C)[C@@H](CN(C)Cc2ccc(Oc3ccccc3)cc2)Oc2cc(Br)ccc2S1(=O)=O | inconclusive [cytotoxic, single point] | –
O=C(NCc1cccnc1)C(=O)Nc1nc(-c2ccccc2)cs1 | active: 4.61 µM | –
C#Cc1cccc(Nc2nc(NCc3ccccc3OC)nc3ccsc23)c1 | inconclusive [cytotoxic, single point] | –
COc1ccc(S(=O)(=O)N2CCCCC2)cc1NC(=O)CN(C)C1CCCCC1 | inactive | –
COc1ccc(S(=O)(=O)N/N=C\c2ccc(OC)c(COc3ccc(C)cc3[N+](=O)[O-])c2)cc1 | inconclusive [cytotoxic, single point] | –
COc1cc2cc(C)nc(Cc3cccc4ccccc34)c2cc1OC | inconclusive [cytotoxic, single point] | –
c1cc(CN2CCCCC2)cc(OCCCNc2nc3ccccc3s2)c1 | inconclusive [cytotoxic, single point] | –
COc1ccc(/C=C/C(=O)c2ccc([N+](=O)[O-])o2)cc1OC | inconclusive [cytotoxic, full curve] | –
COc1cc(CN2CCN(S(=O)(=O)c3ccc(NC(C)=O)cc3)CC2)cc(OC)c1O | inconclusive [rising, partial curve] | –

Compound | Potency | activity, negative = toxicity
COc1ccc(OC)c(C(=O)/C=C/c2cccnc2)c1 | inconclusive [cytotoxic, partial curve] | –
O=C(N/N=C/C(Cl)=C\c1ccccc1)c1cccs1 | inconclusive [cytotoxic, partial curve, poor fit] | –
CCN(CC)c1ccc(S(=O)(=O)N2CCCCC2)cc1NC(=O)C1CCC1 | inactive | –
O=C(Nc1ccc2nn(-c3ccccc3)nc2c1)c1ccc2c(c1)OCO2 | inconclusive [cytotoxic, single point] | –
Cc1c(C(=O)NCc2ccccc2)sc(=O)n1Cc1ccccc1F | inactive | –
COc1cc(NC(=O)C2C3CCC(O3)C2C(=O)O)cc(OC)c1 (centres undefined) | inconclusive [cytotoxic, single point] | –
O=C(COc1ccccc1)NNc1c2ccccc2nc2ccccc12 | inconclusive [cytotoxic, single point] | –
CCOC(=O)N1CCc2c(sc3c2C(=O)NC(c2ccccc2)N3)C1 (centres undefined) | active: 14.6 µM | –
O=C(Cn1ncc(Cl)c(Cl)c1=O)NCC1CCCCC1 | inconclusive [cytotoxic, single point] | –
NC1=NC(=Nc2ccc(Br)cc2)c2ccccc21 | active: 13 µM | –
CC1=C(C(=O)N(C(C)C)C(C)C)CC(CC(=O)NCc2ccco2)C(=O)N1CCC1=CCCCC1 (centres undefined) | inactive | –
O=C(c1[nH]c(C(F)(F)F)nc1-c1ccccc1)N1CCN(c2ncccc2C(F)(F)F)CC1 | inconclusive [cytotoxic, single point] | –
CCOc1ccccc1NC(=O)NCCC1=CCCCC1 | – | inconclusive: 30.4%
Cc1cccc(C)c1OCc1cc(C(=O)N(Cc2c(C)nn(C)c2C)C2CC2)no1 | inconclusive [cytotoxic, single point] | –
CCCCNC(=O)/C(C#N)=C/c1ccc(C(=O)OC)cc1 | inactive | –
N#Cc1ccccc1NC(=O)Nc1ccccc1 | inconclusive [rising, partial curve] | –
CC(=O)N/N=C\c1ccccc1OC/C=C/c1ccccc1 | inactive | –
O=C1C(=O)N(Cc2cccnc2)C(c2cccc([N+](=O)[O-])c2)/C1=C(/O)c1ccc2c(c1)OCO2 (centres undefined) | inactive | –
COc1cccc(Nc2ncc(C#N)c(N)n2)c1 | inconclusive [cytotoxic, single point] | –
CS(=O)(=O)N1CCN(c2ccc(NC(=O)c3ccc([N+](=O)[O-])o3)cc2)CC1 | inconclusive [cytotoxic, partial curve] | –
N#CC1(NC(=O)Cn2ncc(Cl)c(Cl)c2=O)CCCCC1 | active: 9.2 µM | –
COc1ccc(CNC(=O)O[C@H]2Cn3c(=O)ccc(=O)n3[C@@H]3CN(S(=O)(=O)c4ccc(C)cc4)C[C@]23O)cc1OC | inactive | –
CCOc1ccc(S(=O)(=O)n2cnc3cc(C)c(C)cc32)cc1 | inconclusive [cytotoxic, partial curve, poor fit] | –
